The nature of series [1]: 8D1-IgG4 plasma level during repeated iv dosing. Type of series: in vivo. To be noted: rats. The protocol: (§1) Rats (n=4) were administered a single dose of 8D1-IgG4 in the evening of Day 1, 2, 4, and 8, and a single dose of nicotine each morning for 5 days, and six repeated doses on the 9th day, as shown in the table below.
Series [2] is described as follows: brain nicotine levels following repeated nicotine exposure after pretreatment with 8D1-IgG4. Type of series: in vivo. To be noted: rats. The protocol:
Nicotine concentration in the brain is maintained at low levels by anti-nicotine antibodies even after repeated administration of nicotine which simulates very heavy smoking.
In a follow-up study using the 40 and 80 mg/kg antibody doses and the same nicotine dose, a >90% reduction of nicotine distribution to the brain was maintained even after repeated doses of nicotine (5 repeated doses, one every 10 min for 50 min) simulating very heavy smoking, as shown in FIG. 2. Indeed, at an 80 mg/kg dose of the antibody, brain nicotine levels were reduced by 92% 3 minutes after the fifth dose of nicotine.

A short description of series [3]: brain and serum nicotine levels after single nicotine exposure and pretreatment with 8D1-IgG4. Type of series: in vivo. To be noted: rats. An excerpt: The disclosed anti-nicotine agents sequester nicotine in serum and prevent it from entering into, for example, the brain, where it can produce physiological effects.
Series [4] in a line: enantiomer preference of nicotine-binding antibodies. To be noted: S-(−)-nicotine versus R-(+)-nicotine. An excerpt:
(§2) Nicotine has two enantiomers: S-(−)-nicotine and R-(+)-nicotine, with the S-enantiomer known to be the most physiologically active. […] For instance, in some embodiments, a nicotine-binding antibody selectively binds to S-(−)-nicotine with a higher affinity than it binds to R-(+)-nicotine, while in some embodiments a nicotine-binding antibody may bind S-(−)-nicotine and substantially not bind to R-(+)-nicotine. […] Alternatively, in some embodiments, a nicotine-binding antibody used as disclosed herein may selectively bind to R-(+)-nicotine with a higher affinity than it binds to S-(−)-nicotine, while in some embodiments a nicotine-binding antibody used as disclosed herein may bind to R-(+)-nicotine and substantially not bind to S-(−)-nicotine.

Series [5] is described as follows: binding affinity (KD) of nicotine-binding antibodies for R-(+)-nicotine.
Description: as §2

The subject of series [6] is nicotine-induced increases in MAP. In words: change in mean arterial pressure before and after nicotine challenge in rats pretreated with 8D1-IgG4. Type of series: in vivo. The protocol:
Anti-nicotine antibodies prevent a large increase in mean arterial pressure (MAP) induced by nicotine, when administered prior to nicotine exposure.
Pretreatment with anti-nicotine antibodies prevents large increases in MAP even after repeated administration of nicotine.
as §1
These effects remained constant even with repeated administration of nicotine. For example, 80 mg/kg 8D1-IgG4 was administered intravenously in the evening before challenge with nicotine. The next day, the same rat was administered 6 nicotine doses (0.03 mg/kg, iv) once an hour for 5 h to simulate heavy smoking (equivalent to 12 cigs). The difference in MAP was measure by taking measurements 2 minutes before vs. 2 minutes after each nicotine dose.

Entries after “also recorded” stand apart in the source; their conditions may differ.

B1: 8D1-IgG4: IgG4 (S228P) nicotine-binding antibody, heavy SEQ ID NO: 37, light SEQ ID NO: 38 (antibody)
heavy: QVRLQESGPGLVKPSGTLSLTCAVSGGSIYSSNWWTWVRQPPGKGLEWVGEIHIRGTTYYNPSLNSRVTISLDKSNNQVSLRLTSVTAADSAVYYCVSQEVGGPDLWGQGTLVTVSSASTKGPSVFPLAPCSRSTSESTAALGCLVKDYFPEPVTVSWNSGALTSGVHTFPAVLQSSGLYSLSSVVTVPSSSLGTKTYTCNVDHKPSNTKVDKRV[human IgG4 Fc with S228P (EU numbers) not shown]
light: NFMLTQPHSVSESPGKTVTISCTRSGGSIATYYVQWYQQRPGSAPTNVIYKYDQRPSGVPDRFSGSIDSSSNSASLTISGLKTEDEADYYCQSYDNNIQVFGGGTKLTVLGQPKAAPSVTLFPPSSEELQANKATLVCLISDFYPGAVTVAWKADGSPVKAGVETTKPSKQSNNKYAASSYLSLTPEQWKSHRSYSCQVTHEGSTVEKTVAPTECS
The Kd is a measure of binding affinity in units of concentration. B1: the “8D1-IgG4 plasma level (AM)” value is 305 µg/mL in series [1] (Day 2, after 20 mg/kg iv PM Day 1); 770 µg/mL in series [1] (Day 3, after 40 mg/kg iv PM Day 2); 550 µg/mL in series [1] (Day 4); 885 µg/mL in series [1] (Day 5, after 40 mg/kg iv PM Day 4); 1635 µg/mL in series [1] (Day 9, after 80 mg/kg iv PM Day 8). In series [2] (80 mg/kg antibody, 3 minutes after the fifth dose of nicotine), the “brain nicotine levels reduced by” value was found to be 92%. In addition, in series [2] (40 and 80 mg/kg antibody, 5 repeated nicotine doses 0.03 mg/kg, one every 10 min), the “reduction of nicotine distribution to the brain” value is reported as over 90%. Besides, the “reduction in nicotine levels in the brain” value in series [3] (highest antibody dose (40 mg/kg) pretreatment, single 0.03 mg/kg nicotine, sacrificed after 3 minutes) is over 95%. For the same molecule, the serum nicotine concentration entry in series [3] (increasing doses of antibody, single nicotine exposure (FIG. 1 top panel)) was “increased serum concentrations of nicotine”. For the same molecule, the enantiomer binding preference entry in series [4] is “preferentially bind to S-(−)-nicotine”. Also, in series [5], the Kd worked out at 92 nM. For the same molecule, the “increase in MAP after repeated nicotine doses” value in series [6] (rat, 80 mg/kg 8D1-IgG4 iv the evening before, 6 nicotine doses 0.03 mg/kg iv once an hour) is “very little increase in MAP”. Further, the “nicotine-induced increases in mean arterial pressure (MAP)” value in series [6] (rats, single nicotine dose 0.03 mg/kg iv, MAP 2 minutes before and after nicotine, 0.03 mg/kg) was “significantly blocks nicotine-induced increases in MAP; also recorded: significant dose-dependent attenuation”.

The values are drawn from patent US20220267474A1, “METHODS FOR IMPROVING C[…] TREATING CARDIOVASCULAR DISEASE” (ANTIDOTE THERAPEUTICS, INC., priority 2018, published 2022).
